{"source": "patent US11242407B2", "about": "“High-affinity anti-MERTK antibodies and uses thereof” (Rgenix, Inc., priority 2019, dated 2022)", "molecules": {"B1": {"name": "z10: humanized anti-MERTK antibody; heavy chain SEQ ID NO: 112, light chain SEQ ID NO: 113 (antibody)", "heavy": "QVQLVQSGAEVKKPGASVKVSCKASGYTFTNYGMNWVRQAPGQGLEWMGWINTYTGEPTYADDFKGRVTFTTDTSTSTAYMELRSLRSDDMAVYYCARKSTVVSRYFDVWGQGTTVTVSSASTKGPSVFPLAPSSKSTSGGTAALGCLVKDYFPEPVTVSWNSGALTSGVHTFPAVLQSSGLYSLSSVVTVPSSSLGTQTYICNVNHKPSNTKVDKRV[human IgG1 Fc omitted]", "light": "DIQMTQSPSFLSASVGDRVTITCKASQDVGDAVTWYQQKPGKAPKLLIYWASTRHTGVPDRFSGSGSGTDFTLTISSLQPEDFATYYCQQYRSYPLTFGQGTKLEIKRTVAAPSVFIFPPSDEQLKSGTASVVCLLNNFYPREAKVQWKVDNALQSGNSQESVTEQDSKDSTYSLSSTLTLSKADYEKHKVYACEVTHQGLSSPVTKSFNRGEC", "modifications": "Antibody z10 Heavy Chain; Antibody z10/z11/z13 Light Chain"}}, "tested_on": "MDA-MB-231-LM2 TNBC cells", "assay": "Metastasis assay, z10 naked antibody", "assay_type": "in vivo", "conditions": "50,000 cells into tail vein of NSG mice; twice/week i.p. from day of inoculation", "description": "MDA-MB-231 LM2 TR triple negative breast cancer cells (received from Prof. Sohail Tavazoie, Rockefeller University, NYC) harboring a luciferase reporter gene (Minn et al., Nature. 2005 Jul. 28; 436(7050): 518-524) were cultured in D10F culture medium (DMEM Life Technologies, 11965-092), 10% FBS (Sigma, F4135-500 ml), 1% NEAA (Fisher, 11140-050), 1% sodium pyruvate (Fisher, 11360-070), 1% Hepes (Fisher, 15630-080) and 1% Pen/Strep (Fisher, 15140-122). On the day of injection, cells were washed with DPBS (Fisher, 14190-144) and detached using 3 mL of 0.25% Trypsin-EDTA (Fisher, 25200-056) per 15 cm cell culture dish for 5 min in a 37° C. cell culture incubator. Detached cells were resuspended in 5 mL of D10F, counted using a hemocytometer and centrifuged at 220×g for 5 min at room temperature. The pellet was resuspended in DPBS at a concentration of 500,000 cells/mL. 8-week-old NSG female mice (Jackson, 005557) were exposed to a small animal heat lamp (Morganville Scientific, HL0100) for 2-3 minutes. 100 μl of the cell suspension (50'000 cells) was injected into the dilated lateral tail vein of female 8-week old NSG mice. […] Lung colonization was monitored using IVIS imaging upon i.p. administration of 150 mg/kg D-luciferin (Thermofisher Scientific, Waltham, Mass.). […] Mann-Whitney U-test, one tailed was used to assess significance of the metastasis as measured by bioluminescence imaging.", "data": [{"molecule": "B1", "values": [{"measurement": "tumor (lung colonization, IVIS imaging)", "result": "tumor reduction"}]}]}
